# Test results as given in ChEMBL document CHEMBL4888484, “Replenishing the malaria drug discovery pipeline: Screening and hit evaluation of the MMV Hit Generation Library 1 (HGL1) against asexual blood stage Plasmodium falciparum ,using a nano luciferase reporter read-out” (2022).
# The campaign covered roughly 150,000 compounds. About 540 (0.36%) showed an effect of 50% or more. Some of the results follow.
# Test system: Plasmodium falciparum
# Assay: Primary screen in NF54 nanoGlo assay, in single point, at 2uM, 72h; a lower Z score goes with more inhibition
# Format: functional, Erythrocyte
# Settings: timepoint 72 hour
SMILES,% Inhibition,Z score
c1nc(N2CCO[C@@H](COCC3CC3)C2)c2[nH]cnc2n1,-4%,0.65
O=C(COc1ccc(Cl)c(Cl)c1)N1CCn2c1nc1ccccc12,-5%,0.74
O=C(c1ccccc1F)N1CCC[C@H](OCc2cc(F)ccc2F)C1,-10%,1.25
Cc1c(C#N)c(NC(=O)CN2CCOCC2)n(-c2ccccc2)c1C,7%,-0.91
CCn1ncc(NC(=O)c2cc(-c3cnn(C)c3)nc3onc(C)c23)c1C,27%,-3.06
CCc1ccc(NC(=O)N2CCc3cn(CC)c4cccc(c34)C2)cc1,-5%,0.47
CN1CCN(C(=O)N[C@H]2CC(=O)N(c3ccc4c(c3)OCCO4)C2)CC1,13%,-1.66
CC(C)c1ccc(NC(=O)N2CCc3nc(N4CCN(C)CC4)nc(Oc4ccc(F)c(F)c4)c3C2)cc1,22%,-3.03
Cc1nnc([C@H]2CN(C(=O)Cc3ccccc3)CC23CCN(C(=O)Cc2ccccc2)CC3)o1,3%,-0.62
Cc1cnc(CN2CCCCCC2CC(O)c2ccco2)cn1 (configuration not stated),-7%,1.25
CC(C(=O)Nc1nc[nH]n1)c1ccc(CC2CCCC2=O)cc1 (configuration not stated),4%,-0.49
CCCc1nc2cc(CCC(=O)Nc3ccc(Br)cc3C)ccc2[nH]1,-9%,1.08
O=C(Cn1nc(N2CCOCC2)c2ccccc2c1=O)Nc1ccc(C(F)(F)F)cc1,-11%,1.62
CC(CNC(=O)C1(Cl)CC2CCC1O2)N1CCOCC1 (configuration not stated),1%,-0.15
CC(C)(C)n1nccc1NC(=O)N1CCC(CN2CCNC2=O)CC1,-8%,0.91
CC(=O)Nc1nc(C(=O)N(Cc2ccco2)C2CC2)cs1,-12%,2.21
C[C@H]1CCCN(c2cc(C(=O)NCCC3=CCCCC3)c3ccccc3n2)C1,-7%,1.03
CCC=C(C)C(=O)NCc1cccnc1OCC,-13%,1.37
CC(C)(C)OC(=O)N1CC(C(=O)Nc2ccc(OC(F)(F)F)cc2)C1,-5%,0.61
COc1ccc(C)cc1[C@@H](C)NC(=O)N1CCN2C(=O)NCC2C1 (some centres not stated),-11%,1.52
CC(C)c1cc(C(=O)N2C3CCC2CC(N(C)C(=O)c2ccccc2)C3)no1 (configuration not stated),4%,-0.6

SMILES,% Inhibition,Z score
COCc1noc(-c2cc(C3CC3)nc3c2cnn3[C@@H](C)C2CC2)n1,-5%,0.4
Cc1nc2cc(C(=O)N(C[C@H]3CCCCO3)C(C)C)cnc2[nH]1,-5%,0.57
COc1ccccc1C(=O)N(C)[C@@H](C)CS(C)(=O)=O,0%,-0.04
Clc1ccccc1-c1ncnn1CN1CCOC2CCCC21 (configuration not stated),2%,-0.41
Cc1cccc(C)c1OCCOC(=O)c1c(C)nn(C)c1Cl,-6%,1.08
Cc1cc(-c2ccnc(-n3ncc(C(=O)N(C)CC(C)C)c3C)n2)c(C)s1,-7%,0.88
C[C@@H](CC(=O)O)N(C(N)=O)c1ccc(Nc2ccccc2)cc1,33%,-4.2
c1cn(Cc2ccc3c(c2)CCCO3)c(C2CC2)n1,-3%,0.37
c1ccc(Oc2ccc(-c3nc(N4CCCCCC4)c4ccccc4n3)cc2)cc1,-9%,1.14
Cc1ccc(CNC(=O)c2ccc3nnnn3c2)o1,-5%,0.92
CC(=O)c1cccc(S(=O)(=O)N2CCN(C(=O)CCc3nc4ccccc4s3)CC2)c1,-17%,2.21
CN(CCc1cnn(C)c1)Cc1ccc(-c2cc[nH]n2)s1,-3%,0.5
CC(C)N(C)Cc1nc(CN2C(=O)NC(C)(C)C2=O)no1,-2%,0.23
COc1cc(C2[C@@H]3C(C)NC(=O)N(C)[C@@H]3NC(=O)N2C)ccc1O (some centres not stated),-5%,0.68
CN(C)[C@H]1CCN(Cc2ccc(Cl)c(F)c2)C[C@H]1CCCO,12%,-1.58
CC(C)c1nsc(N2CCC3CCC(C2)N3C(C)C)n1 (configuration not stated),4%,-0.49
COCc1cn([C@@H]2CC[C@H]3CCOc4ccccc4C(=O)N4CCN(C5CCN(C(C)=O)CC5)C[C@H]4C(=O)NC[C@H]2O3)nn1,-3%,0.61
COC[C@@H]1[C@H](C(=O)Nc2cc(C)ccc2OC)CCCN1Cc1ccccc1,0%,-0.02
CCN1CCN(Cc2ccc(NC(=O)Nc3cn(CC(C)C)c(=O)c4ccccc34)cc2)CC1,-7%,1.19
O=C(NCc1ccco1)c1nn(-c2ccc(F)cc2)c(=O)n(Cc2ccccc2)c1=O,-18%,1.84
COCCNC(=O)c1ccc(CN(c2nc(-c3ccc(C)cc3)cs2)c2ccccc2Cl)o1,3%,-0.37

SMILES,% Inhibition,Z score
COc1cc(Cl)cc2c1OC=CC(C(=O)Nc1ncc(Cc3ccccc3)s1)=C2,37%,-4.93
CCc1noc(C)c1C(=O)N[C@@H]1[C@H]2CCO[C@H]2[C@@H]1COC,2%,-0.26
Cc1ncc(CNC(=O)c2cc(C3CC3)n(C)n2)c(N)n1,-12%,2.21
Cc1ccc2[nH]c3c(=O)n(CC(=O)N4CCN(Cc5ccc6c(c5)OCO6)CC4)ncc3c2c1,-1%,0.15
CN(C(=O)c1ccccc1N1CCC(NC(=O)c2ccc(C(F)(F)F)cc2)CC1)C1CCCCC1,-8%,1.3
COc1cccc(Cn2c(=O)[nH]c3cc(-c4nc(-c5ccc(OC)c(OC)c5)no4)ccc3c2=O)c1,-15%,2.43
CC(C)(C)c1ccc(C(C)(C)C)c(-n2cnnc2)c1,-12%,1.17
CC(C(=O)N1CCc2ncccc2C1)=C1CCCC1,5%,-0.96
COc1cccc(CNC(=O)N2CC(O)(c3cccc(Br)c3)C2)n1,-16%,3.24
CCn1cncc1[C@@H]1CCCCN1C(=O)Nc1conc1C,-3%,0.37
Cc1ccc(Cn2nc(-c3ccccc3)c3cnc4ccccc4c32)cc1,10%,-1.96
CCS(=O)(=O)N1CCc2nc(NC(C)=O)sc2C1,-6%,0.93
CCc1nc(C#N)cc(NC2CCCCC2C#N)n1 (configuration not stated),10%,-1.12
O=C1CC2(CCN(C(=O)c3ccon3)CC2)CN1Cc1ccc(F)c(F)c1,1%,-0.19
Cc1noc(C)c1CCC(=O)Nc1cc(C(C)(C)C)no1,-8%,0.7
Cc1cccc(NC(=O)CN2CCn3nnc(-c4nc(-c5ccccc5)no4)c3C2=O)c1C,-14%,1.6
COC(=O)c1ccc(S(=O)(=O)Nc2nc(C3CC3)cs2)cn1,1%,-0.15
O=S(=O)(c1ccc(F)cc1)N1CCN(Cc2noc(-c3cccc(F)c3)n2)CC1,-10%,1.41
Cc1ccnc(N2C(=O)[C@H](C)N(C3CCC3)C2=O)c1,-6%,0.7
Cc1ccc(-c2noc(CN3C[C@@H]4NCCO[C@H]4C3)n2)cc1,-6%,0.94
C[C@@H](c1cccc(O)c1)N(C)CC(=O)NCC(F)(F)F,-5%,0.49

SMILES,% Inhibition,Z score
O=C(Nc1ccc(S(=O)(=O)N(Cc2ccccc2)c2ccccc2)cc1)c1ccc(F)cc1,18%,-2.05
O=C(NCc1ccccc1)[C@]1(F)CCN(S(=O)(=O)c2cccc3cccnc23)C1,-8%,1
COc1ccc(/C=C/CN2C[C@H](C(=O)O)[C@@H](c3ccccc3OC)C2)cc1,4%,-0.45
CCc1ccc(-n2c(=O)c3c(n2CC(=O)N[C@@H](C)CCc2ccccc2)Oc2ccc(Cl)cc2C3)cc1,-8%,1.04
CC(=O)Nc1nc(CC(=O)Nc2ncc(C)s2)cs1,-9%,1.02
Clc1ccc(-c2n[nH]c(CN3CCOCC3)n2)cc1,-14%,1.85
CC(c1cccs1)N(C)C(=O)C1CCCC(C(=O)O)C1 (configuration not stated),-3%,0.43
Cc1n[nH]c(CCC(=O)N2CCn3nc(C(=O)Nc4ccccc4)cc3C2)n1,3%,-0.57
CC(C)(C)c1ccc(OCC(=O)N2N=C3CCCCCC3C2(O)C(F)(F)F)cc1 (configuration not stated),-10%,1.33
CS(=O)(=O)CC1(Cc2nc(Cc3ccccc3)no2)CC1,-12%,1.11
CCCNC(=O)Cc1c2c(n(CCc3ccccc3)c1C)CCCC2=O,-26%,2.25
O=C(Cn1ncn2nccc2c1=O)Nc1ccnc2c(Cl)cc(Br)cc12,-11%,1.03
Cc1cc2n(n1)CCCN2C(=O)CCC(=O)N1CCc2ccccc2C1,1%,-0.1
O=C1NC[C@@]2(CCCN(C(=O)c3cc(C(F)(F)F)ccc3Cl)C2)O1,-14%,1.52
Cc1cc(-c2nnc3n2CC(C)(C)CC3)c(C)o1,36%,-4.88
CC(=O)Nc1ccc(Cc2nc(-c3cccc(-c4csc(C)n4)c3)no2)cc1,-11%,1.74
COc1ccc(Nc2ncccc2S(=O)(=O)Nc2ccc(C)cc2)cc1OC,-8%,1.58
CCOc1ccc(-c2cc3n(n2)CCCN(C(C)=O)C3)cc1,-9%,0.97
